The test system of the data set is ATP. The data set can be described thus: switch fluorescence ratio, 500 uM ATP over buffer (Cy3 cluster intensity, sum of 5 cycles each) (fold (ratio)); higher = stronger signal-on switching upon ATP binding; sequences stand for … in TCGTCGGCAGCGTCAGATGTGTATAAGAGACAGTTTTTTTTTTTTTTTTTTTTTTTTT…TC. The settings on record: aptamer strand: ATP DNA aptamer (quencher-CACCTGGGGGAGTATTGCGGAGGAAGG + anchor), 100 nM annealed; ATP concentration: 500 uM; one replicate. A digest of the protocol:
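Between each of five buffer/ATP cycles, the flow-cell was stripped with NaOH and re-annealed. Each cycle imaged Cy3-labelled switching-strand clusters, annealed to 100 nM quencher-labelled ATP aptamer on a modified Illumina MiSeq flow-cell, first in selection buffer and then after 15 min with 500 uM ATP at 22 °C. The fluorescence ratio is summed target-cycle over summed buffer-cycle Cy3 intensity per cluster, averaged per switch-domain sequence, with clusters outside 100-1000 RFU excluded.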

Sequences with one replicate were seen in a single cluster, so their values are uncertain.
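Also: ATP exposure 15 min at 22 °C before imaging.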

Take ACGATCGATG: the switch fluorescence ratio was 0.997. In the case of TGTCGATCTC, the switch fluorescence ratio was found to be 0.989.

As for CATAGCGTGG, the switch fluorescence ratio amounted to 0.998. The same measure for ATCACGTGTG: 1.01; for ACTGTCACTA: 1.14. In the case of CTAAGAGCGG it was 0.974. The same measure for CAATGACCCA: 0.996; for GGCTAGGGCC: 1.02. In the case of GGGCGTTGCG, the switch fluorescence ratio was 1.05. In the case of GCATCCGTAC it was 3.95; in that of ATTTACGCAA, 5.11; in that of AATGGTGT, 1.06. The same measure for TTATTTGACG: 0.981. In the case of GGTACTATCA it was 1.03; in that of GTCGCTTTTC, 1.03. For ATCCTGAAAT, the switch fluorescence ratio turned out to be 1.04. As to GACGTTCGCT, the switch fluorescence ratio turned out to be 0.997. The same measure for AAATATCGCC: 1.01; for ATCCAGCTAT: 1.16. In the case of TACTGCAGGA it was 1.01; in that of GCTGTATCTG, 1.06. The same measure for CATTTGACTA: 1.02; for CAGTTTCATG: 0.996; for TCCTTTGCCT: 1.22. Regarding TTGAACGCTC, the switch fluorescence ratio amounted to 1.85. The same measure for AAAACCCTTG: 0.98; for GGCGGGTTCA: 0.99. Consider CGCCGTAATA, for which the switch fluorescence ratio stood at 4.47. The same measure for AATTATGCTT: 0.99. For the sequence ACAGGTGAAT, the switch fluorescence ratio was found to be 1.68.

For the sequence TGACTCGGCA, the switch fluorescence ratio was found to be 1.43. Take GGATCGGCCC: the switch fluorescence ratio is 0.968. In the case of TCCGGCCTTC it was 1.05; in that of GGGATGGGTG, 1.04. The same measure for GTAAGACGGA: 0.998; for TGGGACAATG: 0.96. Regarding TGGTGCCCAG, the switch fluorescence ratio was 1.03. Regarding GTCGTAATTT, the switch fluorescence ratio was found to be 1.

As for TGTTACGTTC, the switch fluorescence ratio stood at 0.993. As for GTGGGGACGC, the switch fluorescence ratio amounted to 0.924. The same measure for ATTCACAACT: 1.03. The same measure for GATGCTGCGG: 1.03; for AAATCACAGC: 1.1. The same measure for GAGAGACAT: 1.01; for GGGCGAGGCG: 0.955; for TAGTTAATAC: 2.09. With AGATTGGGAG, the switch fluorescence ratio was 1.02.

Consider TCCGGGTTAC, for which the switch fluorescence ratio came to 3.85. The same measure for AAGACCCAAC: 1.04; for GGTGGTTCCT: 1.03. In the case of TGGGAAGACG it was 1.02; in that of GCACGATGCC, 1.03. In the case of GGGCATTG, the switch fluorescence ratio worked out at 0.988. The same measure for GTTAGTACTT: 1.01; for AAGTGTTACC: 0.997.

As for TCATGGGGCA, the switch fluorescence ratio is 1.07. The same measure for CGTTGTGTA: 0.971; for GGTCCCGCAC: 1.42; for TTTAAACCCA: 0.985. As to GCAGGGCAAG, the switch fluorescence ratio is 0.992. In the case of TACGTCAAT it was 1.44; in that of TGGGCACATT, 0.96; in that of TGGCGTCCGG, 0.988. In the case of GGGGACTAG it was 1.05. As to GTAAAAGGAG, the switch fluorescence ratio was determined as 1.02. On to AATAAAGGAA, for which the switch fluorescence ratio is 1.04. With TAACCGATTC, the switch fluorescence ratio turned out to be 1.12.

For TAAGTGACTT, the switch fluorescence ratio was 1.01. In the case of CCTAGTGTTA it was 0.993. The same measure for CGGGCATGAA: 1; for AGAATACGGC: 1.12; for CTCGCATTTA: 1.53. In the case of CGAATTGGCA it was 1.02. For AGGCGGGATC, the switch fluorescence ratio was found to be 1.01. In the case of TGTATGAGGC it was 1; in that of CCATTCGTTC, 1.09; in that of GATCTTTACG, 0.957.

As for GCGATAGACC, the switch fluorescence ratio was found to be 1.13.

As to AGTCATAATA, the switch fluorescence ratio was determined as 0.96. The same measure for CTGGGCTGAC: 1.36; for CGATCGGACA: 1.03; for CAGCCCGCCA: 1.34. As to GCCACAGATG, the switch fluorescence ratio came to 1.41. Turning to GATATCTTAG, the switch fluorescence ratio amounted to 0.994.

Turning to TACATTGACC, the switch fluorescence ratio is 1.14. The same measure for AGCTGTTACA: 1.03. Take ACGTTGCGCT: the switch fluorescence ratio is 0.997. The same measure for TGCGGCGTGG: 0.994. The same measure for AGTGCCTTGA: 0.981; for CATCTCGTCG: 0.954.

Turning to ACTGGCACTG, the switch fluorescence ratio came to 1.1. In the case of GACTTAGGGT it was 1.02; in that of TACAGTCTGC, 1.03. On to AAGACATATT, for which the switch fluorescence ratio stood at 0.989. As for AGGGATCTCG, the switch fluorescence ratio turned out to be 1.01. In the case of GCCGCGGTCC it was 1.37; in that of TTTTGTCTAG, 1; in that of TTATTCCGG, 1.11. On to CCGTACACGG, for which the switch fluorescence ratio was 0.951. Turning to CGTATGTCGC, the switch fluorescence ratio is 1.05. In the case of CAAAGTTTTC it was 1.06; in that of CTTTGAGTCC, 1.03. Regarding AACTCGTCAT, the switch fluorescence ratio amounted to 0.975.

On to TTAGAATAAG, for which the switch fluorescence ratio is 0.951. The same measure for GGTTCTAGA: 1.02. Take CCGAGGCGCG: the switch fluorescence ratio amounted to 1.36. The same measure for CCAGATAGTC: 1.04. The same measure for ACTTGTTGCC: 1.04; for CTTTGAGAA: 0.98; for CAGTACAAA: 1.01.

As for CCCTGAGTAA, the switch fluorescence ratio was found to be 1.46. The same measure for AACCGTTATG: 1.07. The same measure for AGGTGATTAA: 1.02. In the case of GAGTATTCTG it was 0.942; in that of TTGTGCCCTG, 1.03; in that of TGGGTCGGCC, 0.995.

On to CTCATCATTT, for which the switch fluorescence ratio was found to be 0.997. The same measure for CGTCAGAGAA: 0.987; for ACTAAAACGG: 1.1. Turning to GTGAGGATAG, the switch fluorescence ratio came to 1.

The record behind these values is the supplement of paper PMC10126150.
